60 compounds from PubChem BioAssay AID1963576 (National Center for Advancing Translational Sciences (NCATS), 2024) can be followed below.

SMILES strings stand for the structures. Hit rate of the full screen: of about 46,000 compounds, about 60 (0.1%) were called active. Roughly 3% stayed inconclusive and do not appear here. The call rests on the fitted dose curve; in most records, active means well fitted inhibition curve with a large enough effect; inconclusive means small, poorly fitted or top-dose-only effect; inactive means no such curve, though single readings can be large or run the other way. The list shows a part of the results.

The assay in a line: Primary qHTS assay for Inhibitors of ovarian cancer metastasis using an organotypic tumor microenvironment (TME) model. Further: nearly all actives have a fitted effect of over 65% in size.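 On activity change, negative = inhibition: plate controls were DMSO wells for no effect and tomatine positive control wells for full effect.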 The settings on record: SKOV3ip1-GFP adhesion/invasion on 3D omental model, fluorescence; series mostly up to 45.8 µM; activity change, negative = inhibition: at the top concentration. Put shortly:
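A 3D layer of primary human omental fibroblasts, mesothelial cells, fibronectin and collagen I, grown 48 hr, received SKOV3ip1-GFP cells in serum-free medium plus compounds at 0.36-46 umol/L. After 2 hr RT and 16 hr 37 C, fixed adherent GFP cells were counted; normalized to DMSO and tomatine.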
For orientation: In qHTS, concentration-response curves come from the screen itself.
Take `O=C(NCc1ccccc1Cl)NCc1noc2ccccc12`: the “activity change, negative = inhibition” value was inactive: -18.9%.

In the case of `COc1cccc(-n2c(SCC(=O)c3ccc(Cl)cc3)nc3c([nH]c4ccccc43)c2=O)c1`, the “activity change, negative = inhibition” value is inactive: 4.18%.

Regarding `Cc1nn(C(C)(C)C)c(OC(=O)C(C)(C)C)c1Sc1ccccc1`, the “activity change, negative = inhibition” value was inactive: -2.91%.

Turning to `O=C(Nc1ccc(Cl)c(-c2nc3cc(Cl)ccc3o2)c1)c1cc([N+](=O)[O-])ccc1N1CCOCC1`, the “activity change, negative = inhibition” value was inactive: -4.24%.

Take `COc1cc(NC(=O)COCc2cc(-c3ccc(F)cc3)on2)cc(OC)c1OC`: the “activity change, negative = inhibition” value was inactive: -7.22%.

In the case of `Cc1ccc(C(=O)Nc2cc3c(cc2N2CCCC2)n(C)c(=O)c(=O)n3C)cc1`, the “activity change, negative = inhibition” value was inactive: 6.74%.

Regarding `CC(C)(C)NC(=O)[C@H]1CC[C@H]2[C@@H]3CC[C@H]4NC(=O)C=C[C@]4(C)[C@H]3CC[C@]12C`, the “activity change, negative = inhibition” value is inactive: -9.37%.

Turning to `COc1ccccc1N1CCN(c2nc(-c3ccc(C)cc3)nc3ccccc23)CC1`, the “activity change, negative = inhibition” value is inactive: 9.02%.

As to `COc1cccc(NC(=O)C2CCCN(S(=O)(=O)c3ccc4[nH]c(=O)ccc4c3)C2)c1` (stereo not given), the “activity change, negative = inhibition” value was inactive: 20.8%.

As to `CCOc1ccc(-c2cc3c(=O)n(CC(=O)NCc4ccc(Cl)cc4)ccn3n2)cc1`, the “activity change, negative = inhibition” value was inactive: 3.5%.

As for `CC(=O)Nc1ccc(NC(=O)Cn2nc(C(=O)Nc3ccc(C)cc3)ccc2=O)cc1`, the “activity change, negative = inhibition” value was inactive: -13.1%.

`CCCOc1ccc(Oc2nc(NCC(C)C)nc(N3CCOCC3)n2)nn1`: the “activity change, negative = inhibition” value is inactive: -5.39%.

In the case of `O=C(O)CCn1cnc2onc(-c3cc(F)cc(F)c3)c2c1=O`, the compound was classed as inactive.

Regarding `Cn1cc(C(=O)N2CCN(c3cccc(C(F)(F)F)c3)CC2)c2c3ccccc3n(C)c2c1=O`, the compound was classed as inactive.

As to `Cc1ccc(-n2c(SCC(=O)O)nc3sc4c(c3c2=O)CCCC4)cc1`, the “activity change, negative = inhibition” value was inactive: -5.15%.

In the case of `CCOc1ccc(OCC)c(NS(=O)(=O)c2c(C(=O)N3CCC(C)CC3)c(C)n(C)c2C)c1`, the result was inactive.

Regarding `COc1ccc(NC(=O)CN(c2ccc(C)cc2)S(=O)(=O)c2cccc3nonc23)cc1OC`, the result was inactive.

As to `CCOc1ccc(NC(=O)CN(c2ccc(Cl)cc2C)S(=O)(=O)c2ccccc2)cc1`, the compound was called inactive.

On to `COc1ccc(N2CC(NC(=O)c3ccc4c(c3)OCO4)CC2=O)cc1` (stereo not given), for which the “activity change, negative = inhibition” value is inactive: -1.69%.

On to `CC1CCc2nc3ncn(Cc4ccccc4F)c(=O)c3cc2C1` (stereo not given), for which the “activity change, negative = inhibition” value is inactive: 4.28%.

Consider `O=C(Nc1ccc(OCc2cc(=O)n3c4c(sc3n2)CCCC4)cc1)c1ccccc1`, for which the call was inactive.

On to `CCOc1ccc(NC(=O)c2cnc(N3CCCCC3)c3ccccc23)cc1`, for which the “activity change, negative = inhibition” value was inactive: -13.9%.

As to `CC(C)NC(=O)C1CCC(Cn2c(=O)c3sccc3n(CC(=O)NCc3ccccc3)c2=O)CC1` (stereo not given), the “activity change, negative = inhibition” value was inactive: 1.54%.

For the compound `COc1ccc(NC(=O)Cn2cnc3c(oc4ccccc43)c2=O)cc1OC`, the “activity change, negative = inhibition” value is inactive: 10.8%.

For `CCCOc1c(Cl)cc(C(=O)N(Cc2cccc(OC)c2)C2CCS(=O)(=O)C2)cc1Cl` (stereo not given), the “activity change, negative = inhibition” value was inactive: 3.6%.

Turning to `CC(C)OC(=O)CCCC=CC[C@@H]1[C@H](C=C[C@@H](O)COc2cccc(C(F)(F)F)c2)[C@H](O)C[C@@H]1O`, the “activity change, negative = inhibition” value is inactive: -22.3%.

For the compound `CC(C)n1cnc(S(=O)(=O)N2CCCC(C(=O)NCc3ccccc3Cl)C2)c1` (stereo not given), the result was inactive.

As to `CN(c1ccccc1)S(=O)(=O)c1nnc(NC(=O)c2ccccc2)s1`, the “activity change, negative = inhibition” value was inactive: 0.993%.

In the case of `O=C(NCc1ccc2c(c1)OCO2)c1ccc2c(c1)N(Cc1ccccc1)C(=O)c1ccccc1S2=O` (stereo not given), the “activity change, negative = inhibition” value was inactive: 81.3%.

On to `CCOC(=O)c1c(-c2ccccc2)csc1NC(=O)c1cc(-c2ccc(F)cc2)on1`, for which the “activity change, negative = inhibition” value was inactive: 3.13%.

Consider `Cc1cc(C(=O)Nc2ccc(C(C)C)cc2)c2c(C)nn(-c3ccccc3)c2n1`, for which the “activity change, negative = inhibition” value was inactive: -3.35%.

Take `Cc1ccsc1CN(C(=O)c1oc2cc(Br)ccc2c1C)C1CCS(=O)(=O)C1` (stereo not given): the “activity change, negative = inhibition” value was inactive: -23.6%.

For the compound `CCOc1ccc(C(=O)c2c(N)c(-c3nc(-c4ccc5c(c4)OCO5)cs3)c3ccccn23)cc1`, the “activity change, negative = inhibition” value is inactive: 4.3%.

As to `COC(=O)Cn1c(=O)c2cccn2c2cccnc21`, the “activity change, negative = inhibition” value is inactive: 0.0488%.

In the case of `COc1ccccc1CNc1ccc(-c2nc(-c3ccco3)no2)cc1[N+](=O)[O-]`, the “activity change, negative = inhibition” value is inactive: -14.1%.

`Cc1cccc2c(=O)cc(CSc3ccccc3NC(=O)c3cccc(F)c3)[nH]c12`: the “activity change, negative = inhibition” value was inactive: 6.08%.

Take `CCOc1ccccc1NC(=O)Cn1cc(C(=O)c2ccc(Cl)cc2)c(=O)c2ccc(C)nc21`: the “activity change, negative = inhibition” value was inactive: 0.0812%.

`COc1ccc(Cn2c(=O)c3oc4ccccc4c3n(Cc3cccc(C)c3)c2=O)cc1`: the call was inactive.

For `CN(C)CCCN(C(=O)c1ccc2c(c1)OCCO2)c1nc2ccccc2s1`, the “activity change, negative = inhibition” value was inactive: -6.58%.

With `Cc1cc2nn(-c3ccc(F)cc3)nc2cc1NC(=O)c1cccc2ccccc12`, the “activity change, negative = inhibition” value was inactive: -4.51%.

In the case of `O=C(Nc1nnc(S(=O)(=O)N2CCOCC2)s1)c1ccccc1Cl`, the “activity change, negative = inhibition” value was inactive: -9.54%.

As for `CCCC(=O)n1nc(-c2ccco2)nc1NCc1ccccc1Cl`, the “activity change, negative = inhibition” value was inactive: 1.23%.

On to `CC(C)CCNC(=O)c1ccc2c(c1)N(Cc1cccc(Cl)c1)C(=O)c1ccccc1S2`, for which the call was inactive.

As to `Cc1ccc(OCC(=O)Nc2ccc3c(c2)nc(CCNC(=O)c2ccco2)n3C)cc1`, the “activity change, negative = inhibition” value is inactive: 2.49%.

`COc1ccc(N2CCN(C(=O)CN3C(=O)CSc4c3c(C)nn4-c3ccccc3)CC2)cc1`: the “activity change, negative = inhibition” value is inactive: 4.1%.

For `O=C(Nc1ccc2nc(SCc3ccccc3)sc2c1)c1ccccc1F`, the “activity change, negative = inhibition” value was inactive: -4.29%.

On to `O=C(Nc1ccc(F)c(Cl)c1)c1cc(S(=O)(=O)N2CCc3ccccc3C2)ccc1F`, for which the “activity change, negative = inhibition” value was inactive: -6.05%.

On to `CC(=O)Nc1ccc(NC(=O)C2CCCN2S(=O)(=O)c2ccc3c(c2)CCCC(=O)N3)cc1` (stereo not given), for which the call was inactive.

As for `COc1ccc(OC)c(CCNC(=O)c2cc3c(=O)oc4ccc(C)cc4c3s2)c1`, the call was inactive.

For the compound `CCn1c(=O)c(=O)n(CC)c2cc(N3CCCCC3)c(NC(=O)c3ccc(Cl)cc3)cc21`, the “activity change, negative = inhibition” value is inactive: -2.3%.

As for `COc1ccc(CNC(=O)CN2N=C(c3ccccc3)CCC2=O)c(OC)c1`, the “activity change, negative = inhibition” value was inactive: -7.66%.

Regarding `Cc1ccccc1N1CC(C(=O)Nc2ccc(Br)cc2)CC1=O` (stereo not given), the “activity change, negative = inhibition” value is inactive: 3.13%.

As for `COCCCNc1nc2cc(OC)c(OC)cc2c2nc(-c3ccccc3)nn12`, the “activity change, negative = inhibition” value is inactive: 0.523%.

As for `COc1cc(Cl)c(C)cc1NC(=O)c1ccc2c(SCC(=O)O)c3c(nc2c1)CCCC3`, the compound was classed as inactive.

On to `Cc1ccc(-n2nnc(-c3nsc(NC(=O)c4cccc(Cl)c4)n3)c2C)cc1C`, for which the compound was called inactive.

On to `O=C(CSc1n[nH]c(-c2ccccc2)n1)NCCCc1ccccc1`, for which the “activity change, negative = inhibition” value is inactive: 8.99%.

As to `COc1ccc(C(=O)NCc2nnc(SCC(=O)Nc3ccccc3)n2-c2ccccc2)cc1`, the “activity change, negative = inhibition” value is inactive: 3.28%.

For `Cc1nnc(N2CCCC(C(=O)NCc3ccccc3F)C2)c2nn(-c3ccc(Cl)cc3)c(C)c12` (stereo not given), the “activity change, negative = inhibition” value was inactive: 2.44%.

With `COc1ccc(NC(=O)CSc2ncccc2C(=O)O)cc1OC`, the “activity change, negative = inhibition” value was inactive: 1.82%.

Consider `COc1ccc(NC(=O)CCSc2nc(-c3ccco3)cc(C(F)(F)F)n2)cc1`, for which the “activity change, negative = inhibition” value was inactive: -10.7%.
